# Assay results taken from publication PMC4336329 (PLoS ONE, 2015).
# In all, about 310,000 compounds went through this assay and about 14,000 (4.5%) showed an effect of 50% or more. Effects have a minus sign here. The list shows a part of the results.
# Target: human ether-à-go-go-related gene (hERG) potassium channel (human, UniProt Q12809)
# Test: primary screen, population patch clamp on CHO cells stably expressing hERG
# 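Note: peak tail current of the secondary pulse compared with the same well before compound.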
# Sequence of human ether-à-go-go-related gene (hERG) potassium channel (Q12809 whole entry, looked up): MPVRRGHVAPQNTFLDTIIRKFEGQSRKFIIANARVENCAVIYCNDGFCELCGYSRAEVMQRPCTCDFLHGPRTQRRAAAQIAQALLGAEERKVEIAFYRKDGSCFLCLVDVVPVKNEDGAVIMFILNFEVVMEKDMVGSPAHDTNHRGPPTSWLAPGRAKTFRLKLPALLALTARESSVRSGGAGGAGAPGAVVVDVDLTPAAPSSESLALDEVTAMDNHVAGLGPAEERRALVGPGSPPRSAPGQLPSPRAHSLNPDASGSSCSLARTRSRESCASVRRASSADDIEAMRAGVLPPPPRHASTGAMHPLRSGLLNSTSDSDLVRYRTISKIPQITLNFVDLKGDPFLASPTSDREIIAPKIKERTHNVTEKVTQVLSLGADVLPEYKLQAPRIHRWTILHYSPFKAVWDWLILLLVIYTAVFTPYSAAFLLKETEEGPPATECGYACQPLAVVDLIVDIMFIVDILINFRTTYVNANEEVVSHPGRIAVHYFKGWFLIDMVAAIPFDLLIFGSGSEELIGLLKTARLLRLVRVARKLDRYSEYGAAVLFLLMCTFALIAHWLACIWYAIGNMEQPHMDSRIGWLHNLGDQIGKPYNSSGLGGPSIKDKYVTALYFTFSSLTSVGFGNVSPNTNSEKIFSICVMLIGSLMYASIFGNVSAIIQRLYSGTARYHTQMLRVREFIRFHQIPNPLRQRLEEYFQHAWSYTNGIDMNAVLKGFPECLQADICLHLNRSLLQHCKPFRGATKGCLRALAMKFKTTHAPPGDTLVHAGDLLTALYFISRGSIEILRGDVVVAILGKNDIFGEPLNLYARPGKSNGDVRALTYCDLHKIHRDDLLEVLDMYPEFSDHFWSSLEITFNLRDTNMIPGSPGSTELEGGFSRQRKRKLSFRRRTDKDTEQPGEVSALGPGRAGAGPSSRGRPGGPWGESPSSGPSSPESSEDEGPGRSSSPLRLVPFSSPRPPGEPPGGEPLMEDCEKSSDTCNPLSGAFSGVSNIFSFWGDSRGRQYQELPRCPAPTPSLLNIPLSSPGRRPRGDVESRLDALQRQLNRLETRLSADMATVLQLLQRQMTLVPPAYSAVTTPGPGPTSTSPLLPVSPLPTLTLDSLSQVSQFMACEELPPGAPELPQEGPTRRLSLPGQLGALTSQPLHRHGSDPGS
row,Compound,"hERG current change (%, negative = inhibition) at 10uM [%]"
1,COc1ccc(NC(=O)NNS(=O)(=O)c2ccc(Br)cc2)cc1,25.3
2,Cc1sc2ncn(CC(=O)N3CCOCC3)c(=O)c2c1-c1ccccc1,1.16
3,Cc1cc(=O)[nH]c(SCC(=O)N2CCCC(C)C2)n1 (centres unmarked),11.3
4,CNC(=O)c1cc(NC(=O)CCn2nc(-c3ccc(C)cc3)c3ccccc3c2=O)ccc1OC,9.64
5,CCN(CC)Cc1c(-c2ccccc2)[nH]c2ccc(C)cc2c1=O,-6.74
6,CNC(=O)CC1C(=O)N(c2ccc(F)cc2)C(=S)N1NC(=O)c1ccc(Cl)cc1 (centres unmarked),-3.12
7,Cc1ccc(C2c3c(oc4ccccc4c3=O)C(=O)N2CCCN2CCOCC2)o1 (centres unmarked),-5.18
8,CCC(CC)C(=O)N1CCN(c2cccc(C)c2C)CC1,3.07
9,COC(=O)c1c(NS(=O)(=O)c2cccs2)sc2c1CCCC2,4.33
10,Cc1ccc2[nH]c(O)c(N=NC(=O)C(C)n3cnc4ccccc4c3=O)c2c1 (centres unmarked),-10.4
11,CC1CC(C)CN(CC(C)(C)NS(=O)(=O)c2ccccc2)C1 (centres unmarked),-13.7
12,CC1(c2ccc(OC(F)F)cc2)NC(=O)N(CC(=O)Nc2ccc3c(c2)OCO3)C1=O (centres unmarked),-36.5
13,Cc1cccc(NC(=O)c2ccc(C(=O)Nc3cccc(C)c3)nc2)c1,23.2
14,S=C(NCCc1ccccn1)Nc1ccc(Cl)cc1Cl,-30.4
15,CC(=O)Nc1ccc(C(=O)OCC(=O)Nc2ccccc2Sc2ccccc2)cc1,7.12
16,Cc1ccc(SCC(=O)Nc2cccnc2)cc1,14.2
17,CCN(CC)S(=O)(=O)c1ccc(NC(=S)Nc2ccc(F)cc2)cc1,1.59
18,CCN(CC)CCOC(=O)CCc1cccc2ccccc12.O=C(O)C(=O)O,-42.6
19,O=C(Nc1cc(S(=O)(=O)N2CCCCC2)ccc1N1CCCCC1)C1CC1,-29.3
20,Cl.NC(CC(=O)O)c1ccc(Br)cc1 (centres unmarked),0.265
21,Cl.O=C(CN1CCCCC1)N1c2ccccc2Sc2ccc(C(F)(F)F)cc21,-31.1
22,Oc1ccccc1C1=Nc2ncnn2C(c2ccccc2)C1 (centres unmarked),-16.6
23,CCOc1ccc(Nc2nc3c(c(=O)[nH]2)CCCC3)cc1,-3.98

row,Compound,"hERG current change (%, negative = inhibition) at 10uM [%]"
1,CCN(Cc1ccccc1)S(=O)(=O)c1cc(C(=O)NC(C)C2CC3CCC2C3)ccc1OC (centres unmarked),3.23
2,Cc1cc(NC(=O)C(Cl)c2ccccc2)no1 (centres unmarked),-0.0237
3,COc1ccc(C(=O)C2CCCN(Cc3ccon3)C2)c(OC)c1 (centres unmarked),-53.9
4,CC(OC(=O)c1ccc(NS(=O)(=O)c2ccc3[nH]c(=O)[nH]c3c2)cc1)C(N)=O (centres unmarked),18.1
5,CCOc1ccc(NC(=O)CN2CCN(CC(=O)Nc3ccc(OC)cc3OC)CC2)cc1,-74.2
6,O=C(CCS(=O)(=O)c1ccc(Br)cc1)N1CCN(c2ccc(Cl)cc2)CC1,-9.11
7,COc1cc(NS(=O)(=O)c2ccc(C)cc2)c2ncccc2c1,-3.47
8,CC(CNC(=O)Cn1ccc(N)nc1=O)c1ccccc1 (centres unmarked),6.63
9,c1ccc(Cn2nnc3ccccc32)cc1,8.88
10,CC(C)O.CCc1ccc(-n2c(O)c(/C=N/N3CCCCC3c3cccnc3)c(=O)[nH]c2=O)cc1 (centres unmarked),13
11,COc1ccc(-c2cc(O)cc(O)c2)cc1,-3.33
12,CN(Cc1ccccc1)Cc1c(O)ccc2ccccc12,7.65
13,Cc1cc2[nH]c(=O)c3ccccc3n2n1,3.95
14,Cc1nnc2ccc(N3CCC4(CC3)OCCO4)nn12,2.06
15,CCS(=O)(=O)NCC(c1cccnc1)N1CCN(c2ccc(OC)cc2)CC1 (centres unmarked),-11.3
16,O=C(O)CCC(=O)N1CCN(c2nc(-c3ccccc3Cl)c3cc(Br)ccc3n2)CC1,-1.78
17,CN1CCCCc2c1nc1ccccc1c2N.O=C(O)c1cncc(Br)c1,-82.5
18,COc1cc(C2C3C(=O)N(c4ccccc4)C(=O)C3ON2c2ccccc2)ccc1O (centres unmarked),17.3
19,Cc1ccc(C(=O)NC(=S)NCC2CCCO2)cc1 (centres unmarked),4.03
20,CC(=O)c1cccc(NC(=O)C2CC(=O)N(Cc3ccccc3)C2)c1 (centres unmarked),2.85
21,O=C(COC(=O)c1nc(Cl)ccc1Cl)NCc1cccs1,1.99
22,C=CCNC1=C(Cl)C(=O)c2ccccc2C1=O,4.26
23,COc1ccc(C(c2nnnn2C2CCCC2)N2CCN(C3CCCC3)CC2)cc1OC.Cl (centres unmarked),-22.7

row,Compound,"hERG current change (%, negative = inhibition) at 10uM [%]"
1,COc1ccccc1OC(C)C(=O)Nc1ccc2c(c1)OCCO2 (centres unmarked),-0.873
2,O=C(OCC(=O)N1CCCC1=O)C1COc2ccccc2O1 (centres unmarked),24.8
3,CCN1CCN(C(=O)C2=CC(c3ccc(OC)cc3)=NS(=O)(=O)N2C)CC1,-2.99
4,Cc1ccc(-n2nc3c([n+]2[O-])CCc2nonc2-3)cc1,18.6
5,CN(CC(=O)Nc1c(Cl)cccc1Cl)C(=O)c1ccc2nc[nH]c2c1,9.64
6,Cn1cnnc1SCCC(=O)Nc1ccc(Cl)cc1,12
7,Cc1ccc(-c2nc(-c3cccnc3)no2)c(C)c1,11.9
8,COC(=O)c1cc(OC)c(OC)c(OC)c1NC(=O)c1ccc(S(=O)(=O)N(C)C)cc1,1.07
9,CC(=O)c1ccc(Cl)c(Cl)c1Cl,9.6
10,CCc1nc(Cl)c(C#N)c2c1CCCC2,-1.73
11,O=C(CSc1nc2ccccc2o1)N/N=C/c1ccc(O)c(O)c1,-19.4
12,Cc1ccc(NC(=O)CSCc2ccco2)cc1,21.7
13,N#Cc1c(SCc2ccccc2)sc(C(=O)c2ccccc2)c1N,2.97
14,O=S(=O)(Nc1ccc(Cc2ccncc2)cc1)N1CCCC1,-15.6
15,Cc1cnc(NC(=O)c2ccc3c(c2)C(=O)N(Cc2cccnc2)C3=O)s1,10.6
16,O=C(c1ccccc1)N(Cc1cccc(Br)c1)C1CCS(=O)(=O)C1 (centres unmarked),-7.59
17,Fc1ccc(CNc2nc(-c3cccnc3)nc3ccccc23)cc1,-50.4
18,Cc1ccccc1NC(=O)/C(C#N)=C/c1ccc(-c2ccc(Cl)c(C(=O)O)c2)o1,25.3
19,Cc1ccc(CCNC(=O)c2nc(CS(=O)(=O)c3ccc(Cl)cc3)no2)cc1,31.6
20,CCN1C(=O)[C@H]2[C@@H](c3ccc(C)cc3)N3C(=O)N(c4cccc(C)c4)C(=O)[C@@]3(Cc3ccccc3)[C@H]2C1=O,7.13
21,CCN(CC)CC(=O)N1c2ccccc2Sc2ccc(Cl)cc21.Cl,-10.3
22,Cc1cc(NC(=O)C2Oc3ccccc3OC2C)no1 (centres unmarked),6.59
23,Cc1ccc(NC(=O)CSCC(=O)Nc2ccc(N3CCOCC3)c(Cl)c2)cc1,-11.4

row,Compound,"hERG current change (%, negative = inhibition) at 10uM [%]"
1,CC1CCN(C(=O)c2ccc(COc3ccccc3Cl)o2)CC1,-15
2,Oc1ccc2ccccc2c1/C=N/Nc1nnc(-c2ncc[nH]2)c2ccccc12,18.4
3,c1ccc(NC(=NCc2ccco2)c2ccccc2)cc1,-17.6
4,CCOC(=O)Cc1nnc(NC(=O)c2ccco2)s1,1.13
5,O=C(COC(=O)/C=C/c1ccccc1[N+](=O)[O-])NCC(F)(F)F,4.18
6,CCCCCSc1cc(OC)c(CCN)cc1OC.O=C(O)/C=C\C(=O)O,-35.9
7,O=C(Nc1ccc(Cc2ccncc2)cc1)c1ccc(N2CCOCC2)c([N+](=O)[O-])c1,-59.1
8,COc1ccc(CCNC(=O)c2c(N)n(CCN3CCOCC3)c3nc4ccccc4nc23)cc1OC,-8.6
9,CCOC(=O)/C(=C/c1c[nH]c2ccccc12)NC(C)=O,-3.03
10,O=C(Cc1ccccc1)NCC(=O)N1CCN(c2ccccc2)CC1,5.93
11,CC(Oc1ccc(Cl)cc1Cl)C(=O)NN=C1CCN(C)CC1 (centres unmarked),-4.7
12,CCC(=O)Nc1ccccc1Oc1ccccc1,0.62
13,Cc1cc(C)c(S(=O)(=O)/N=C2\C=C(NS(=O)(=O)c3ccccc3)C(=O)c3ccccc32)c(C)c1,6.25
14,O=[N+]([O-])c1cccc2nc(-c3ccccc3)c(-c3ccccc3)nc12,-37.8
15,O=C1C(=O)N(CCCN2CCOCC2)C(c2ccc([N+](=O)[O-])cc2)/C1=C(/O)c1ccc2c(c1)OCO2 (centres unmarked),6.91
16,COc1ccc(C=O)cc1COc1ccc([N+](=O)[O-])c(C)c1,-9.4
17,C/C(=N/n1cnnc1)c1cccnc1,-0.855
18,CC(=O)Oc1ccc(C(=O)Nc2ccc3c(c2)OCCO3)cc1,24
19,O=C(Nc1cccnc1)Nc1ccc(F)c(Cl)c1,-36.8
20,O=C(Nc1ccccc1C(=O)N1CCCCC1)c1ccccc1C(F)(F)F,27.6
